In article PMC3000556 (FEBS letters, 2010):

B1: N-terminal T7-tagged Ku80 (N-565aa) fragment (domain or fragment)
chain: not shown
B2: Full-length (576 aa) human coilin fused to GST (natural protein)
chain: MAASETVRLRLQFDYPPPATPHCTAFWLLVDLNRCRVVTDLISLIRQRFGFSSGAFLGLYLEGGLLPPAESARLVRDNDCLRVKLEERGVAENSVVISNGDINLSLRKAKKRAFQLEEGEETEPDCKYSKKHWKSRENNNNNEKVLDLEPKAVTDQTVSKKNKRKNKATCGTVGDDNEEAKRKSPKKKEKCEYKKKAKNPKSPKVQAVKDWANQRCSSPKGSARNSLVKAKRKGSVSVCSKESPSSSSESESCDESISDGPSKVTLEARNSSEKLPTELSKEEPSTKNTTADKLAIKLGFSLTPSKGKTSGTTSSSSDSSAESDDQCLMSSSTPECAAGFLKTVGLFAGRGRPGPGLSSQT[letters of about 200 residues left out]

How the values were obtained:
[1] = biological target: B2; test: pull-down
[2] = biological target: Soluble full length T7-tagged Ku80 (N-732aa) (UniProt P13010); test: pull-down

| Binder | binding result [1] | binding result [2] |
| --- | --- | --- |
| B1 | binds | – |
| B2 | – | binds |
